# Data from the supplement of paper PMC8728848.
# Some of the results follow.
# Key:
# Assay in all cases: glycan array binding signal (z-score within array); higher = stronger binding
# Settings in all cases: glycan notation: IUPAC condensed, linker removed
# [1] = target: Fuc(a1-2)[Gal(a1-3)]Gal(b1-4)GlcNAc(b1-2)Man(a1-3)[Fuc(a1-2)[Gal(a1-3)]Gal(b1-4)GlcNAc(b1-2)Man(a1-6)]Man(b1-4)GlcNAc(b1-4)GlcNAc
# Procedure, shortened: (§1)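 Glycan array data were curated from 3228 arrays in the Consortium for Functional Glycomics database and kept only where the protein sequence was available. Glycan names were converted to IUPAC-condensed notation, and columns mapping to the same glycan were averaged. The binding signal is a within-array Z-score, averaged across arrays of the same protein sequence at different concentrations or buffers and across linkers. Negative Z-scores can be read as non-binding.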
# [2] = target: Fuc(a1-2)[Gal(a1-3)]Gal(b1-4)GlcNAc(b1-2)Man(a1-3)[Fuc(a1-2)[Gal(a1-3)]Gal(b1-4)GlcNAc(b1-2)Man(a1-6)]Man(b1-4)GlcNAc(b1-4)[Fuc(a1-6)]GlcNAc
# Procedure, shortened: as §1
# [3] = target: Fuc(a1-2)[Gal(a1-3)]Gal(b1-4)GlcNAc(b1-3)GalNAc
# Procedure, shortened: as §1
# [4] = target: Fuc(a1-2)[Gal(a1-3)]Gal(b1-4)GlcNAc(b1-3)[Fuc(a1-2)[Gal(a1-3)]Gal(b1-4)GlcNAc(b1-6)]GalNAc
# Procedure, shortened: as §1
# [5] = target: Fuc(a1-2)[Gal(a1-3)]Gal(b1-4)GlcNAc(b1-6)GalNAc
# Procedure, shortened: as §1
# [6] = target: Fuc(a1-2)[Gal(a1-3)]Gal(b1-4)[Fuc(a1-3)]Glc
# Procedure, shortened: as §1
# [7] = target: Fuc(a1-2)[Gal(a1-3)]Gal(b1-4)[Fuc(a1-3)]GlcNAc
# Procedure, shortened: as §1
# [8] = target: Fuc(a1-2)[Gal(a1-3)]Gal(b1-4)[Fuc(a1-3)]GlcNAc(b1-3)GalNAc
# Procedure, shortened: as §1
# [9] = target: Fuc(a1-2)[Gal(a1-4)]Gal(b1-4)GlcNAc
# Procedure, shortened: as §1
# [10] = target: Fuc(a1-2)[GalNAc(a1-3)]Gal
# Procedure, shortened: as §1
# [11] = target: Fuc(a1-2)[GalNAc(a1-3)]Gal(b1-3)GalNAc(a1-3)[Fuc(a1-2)]Gal(b1-4)GlcNAc
# Procedure, shortened: as §1
# [12] = target: Fuc(a1-2)[GalNAc(a1-3)]Gal(b1-3)GalNAc(b1-3)Gal(a1-4)Gal(b1-4)Glc
# Procedure, shortened: as §1
# [13] = target: Fuc(a1-2)[GalNAc(a1-3)]Gal(b1-3)GlcNAc
# Procedure, shortened: as §1
# [14] = target: Fuc(a1-2)[GalNAc(a1-3)]Gal(b1-3)GlcNAc(b1-2)Man(a1-3)[Fuc(a1-2)[GalNAc(a1-3)]Gal(b1-3)GlcNAc(b1-2)Man(a1-6)]Man(b1-4)GlcNAc(b1-4)GlcNAc
# Procedure, shortened: as §1
# [15] = target: Fuc(a1-2)[GalNAc(a1-3)]Gal(b1-3)GlcNAc(b1-2)Man(a1-3)[Fuc(a1-2)[GalNAc(a1-3)]Gal(b1-3)GlcNAc(b1-2)Man(a1-6)]Man(b1-4)GlcNAc(b1-4)[Fuc(a1-6)]GlcNAc
# Procedure, shortened: as §1
# [16] = target: Fuc(a1-2)[GalNAc(a1-3)]Gal(b1-3)GlcNAc(b1-3)GalNAc
# Procedure, shortened: as §1
# [17] = target: Fuc(a1-2)[GalNAc(a1-3)]Gal(b1-3)GlcNAc(b1-6)GalNAc
# Procedure, shortened: as §1
# [18] = target: Fuc(a1-2)[GalNAc(a1-3)]Gal(b1-4)Glc
# Procedure, shortened: as §1
# [19] = target: Fuc(a1-2)[GalNAc(a1-3)]Gal(b1-4)GlcNAc
# Procedure, shortened: as §1
# [20] = target: Fuc(a1-2)[GalNAc(a1-3)]Gal(b1-4)GlcNAc(b1-2)Man
# Procedure, shortened: as §1
# [21] = target: Fuc(a1-2)[GalNAc(a1-3)]Gal(b1-4)GlcNAc(b1-2)Man(a1-3)[Fuc(a1-2)[GalNAc(a1-3)]Gal(b1-4)GlcNAc(b1-2)Man(a1-6)]Man(b1-4)GlcNAc(b1-4)GlcNAc
# Procedure, shortened: as §1
# [22] = target: Fuc(a1-2)[GalNAc(a1-3)]Gal(b1-4)GlcNAc(b1-2)Man(a1-3)[Fuc(a1-2)[GalNAc(a1-3)]Gal(b1-4)GlcNAc(b1-2)Man(a1-6)]Man(b1-4)GlcNAc(b1-4)[Fuc(a1-6)]GlcNAc
# Procedure, shortened: as §1
# [23] = target: Fuc(a1-2)[GalNAc(a1-3)]Gal(b1-4)GlcNAc(b1-3)Gal(b1-4)GlcNAc
# Procedure, shortened: as §1
# [24] = target: Fuc(a1-2)[GalNAc(a1-3)]Gal(b1-4)GlcNAc(b1-3)Gal(b1-4)GlcNAc(b1-3)Gal(b1-4)GlcNAc
# Procedure, shortened: as §1
# [25] = target: Fuc(a1-2)[GalNAc(a1-3)]Gal(b1-4)GlcNAc(b1-3)GalNAc
# Procedure, shortened: as §1
# [26] = target: Fuc(a1-2)[GalNAc(a1-3)]Gal(b1-4)GlcNAc(b1-3)[Fuc(a1-2)[GalNAc(a1-3)]Gal(b1-4)GlcNAc(b1-6)]GalNAc
# Procedure, shortened: as §1
# [27] = target: Fuc(a1-2)[GalNAc(a1-3)]Gal(b1-4)GlcNAc(b1-6)GalNAc
# Procedure, shortened: as §1
# [28] = target: Fuc(a1-2)[GalNAc(a1-3)]Gal(b1-4)[Fuc(a1-3)]GlcNAc
# Procedure, shortened: as §1
# [29] = target: Fuc(a1-2)[GalNAc(a1-3)]Gal(b1-4)[Fuc(a1-3)]GlcNAc(b1-3)GalNAc
# Procedure, shortened: as §1
# [30] = target: Fuc(a1-2)[GalNAc(a1-4)]Gal(b1-4)GlcNAc
# Procedure, shortened: as §1
# [31] = target: Fuc(a1-2)[GalNAc(b1-3)]Gal
# Procedure, shortened: as §1
# Fuc(a1-3)GlcNAc = target: Fuc(a1-3)GlcNAc
# Procedure, shortened: as §1
# [32] = target: Fuc(a1-3)[Gal(b1-4)]Glc6S
# Procedure, shortened: as §1
# [33] = target: Fuc(a1-3)[Gal(b1-4)]GlcNAc
# Procedure, shortened: as §1
# [34] = target: Fuc(a1-3)[Gal(b1-4)]GlcNAc(b1-2)Man
# Procedure, shortened: as §1
# [35] = target: Fuc(a1-3)[Gal(b1-4)]GlcNAc(b1-2)Man(a1-3)[Fuc(a1-3)[Gal(b1-4)]GlcNAc(b1-2)Man(a1-6)]Man(b1-4)GlcNAc(b1-4)GlcNAc
# Procedure, shortened: as §1
# [36] = target: Fuc(a1-3)[Gal(b1-4)]GlcNAc(b1-2)Man(a1-3)[Fuc(a1-3)[Gal(b1-4)]GlcNAc(b1-2)Man(a1-6)]Man(b1-4)GlcNAc(b1-4)[Fuc(a1-6)]GlcNAc
# Procedure, shortened: as §1
# [37] = target: Fuc(a1-3)[Gal(b1-4)]GlcNAc(b1-3)Gal(b1-3)[Fuc(a1-4)]GlcNAc
# Procedure, shortened: as §1
# [38] = target: Fuc(a1-3)[Gal(b1-4)]GlcNAc(b1-3)Gal(b1-4)[Fuc(a1-3)]GlcNAc
# Procedure, shortened: as §1
# [39] = target: Fuc(a1-3)[Gal(b1-4)]GlcNAc(b1-3)Gal(b1-4)[Fuc(a1-3)]GlcNAc(b1-3)Gal(b1-4)[Fuc(a1-3)]GlcNAc
# Procedure, shortened: as §1
# [40] = target: Fuc(a1-3)[Gal(b1-4)]GlcNAc(b1-3)GalNAc
# Procedure, shortened: as §1
# [41] = target: Fuc(a1-3)[Gal(b1-4)]GlcNAc(b1-6)GalNAc
# Procedure, shortened: as §1
# [42] = target: Fuc(a1-3)[Gal(b1-4)]GlcNAc(b1-6)[Gal(b1-3)GlcNAc(b1-3)]Gal(b1-4)Glc
# Procedure, shortened: as §1
# [43] = target: Fuc(a1-3)[Gal(b1-4)]GlcNAc6S
# Procedure, shortened: as §1
# [44] = target: Fuc(a1-3)[Gal3S(b1-4)]Glc
# Procedure, shortened: as §1
binder,measurement,setting,value
"CFEM-PPm (Pichia pastoris), F2QPV1 (protein) AVATPPACLLACAAEVVKESSDCDALNNIQCICENEGSAIHACLESTCPDGLSSTALQSFEDVCE",glycan array binding signal (z-score),[1],-0.317
same,glycan array binding signal (z-score),[2],-0.23
same,glycan array binding signal (z-score),[3],-0.477
same,glycan array binding signal (z-score),[4],0.009
same,glycan array binding signal (z-score),[5],-0.321
same,glycan array binding signal (z-score),[6],-0.44
same,glycan array binding signal (z-score),[7],-0.092
same,glycan array binding signal (z-score),[8],0.057
same,glycan array binding signal (z-score),[9],0.284
same,glycan array binding signal (z-score),[10],-0.252
same,glycan array binding signal (z-score),[11],-0.363
same,glycan array binding signal (z-score),[12],-0.397
same,glycan array binding signal (z-score),[13],-0.073
same,glycan array binding signal (z-score),[14],-0.371
same,glycan array binding signal (z-score),[15],0.003
same,glycan array binding signal (z-score),[16],0.656
same,glycan array binding signal (z-score),[17],-0.374
same,glycan array binding signal (z-score),[18],-0.138
same,glycan array binding signal (z-score),[19],-0.274
same,glycan array binding signal (z-score),[20],-0.313
same,glycan array binding signal (z-score),[21],-0.138
same,glycan array binding signal (z-score),[22],-0.267
same,glycan array binding signal (z-score),[23],-0.38
same,glycan array binding signal (z-score),[24],-0.265
same,glycan array binding signal (z-score),[25],-0.294
same,glycan array binding signal (z-score),[26],-0.055
same,glycan array binding signal (z-score),[27],-0.175
same,glycan array binding signal (z-score),[28],0.032
same,glycan array binding signal (z-score),[29],3.4
same,glycan array binding signal (z-score),[30],0.238
same,glycan array binding signal (z-score),[31],-0.233
same,glycan array binding signal (z-score),Fuc(a1-3)GlcNAc,-0.301
same,glycan array binding signal (z-score),[32],-0.092
same,glycan array binding signal (z-score),[33],-0.068
same,glycan array binding signal (z-score),[34],-0.113
same,glycan array binding signal (z-score),[35],-0.141
same,glycan array binding signal (z-score),[36],-0.095
same,glycan array binding signal (z-score),[37],-0.258
same,glycan array binding signal (z-score),[38],-0.027
same,glycan array binding signal (z-score),[39],0.134
same,glycan array binding signal (z-score),[40],0.15
same,glycan array binding signal (z-score),[41],1.19
same,glycan array binding signal (z-score),[42],-0.303
same,glycan array binding signal (z-score),[43],-0.002
same,glycan array binding signal (z-score),[44],-0.232
